Experiments:
AUC; monomer-dimer = target: the molecule itself; assay: AUC; monomer-dimer
AUC; dimer-tetramer = target: the molecule itself; assay: AUC; dimer-tetramer

Protein | Kd (AUC; monomer-dimer) [nM] | Kd (AUC; dimer-tetramer) [nM]
OASFext L251S (STIM1 […] L251S) (domain or fragment) not shown | 570 | 181000
OASFext R304W (STIM1 […] R304W) (domain or fragment) not shown | 550 | –
OASFext (extended OASF fragment, STIM1 […]) wild type (domain or fragment) not shown | 850 | –
